# Test results: PubChem BioAssay AID360 (National Center for Advancing Translational Sciences (NCATS), 2006)
# About 550 (1.1%) of roughly 48,000 compounds were called active. About 4% were inconclusive and are not listed. Cut-off read from the data, not from the text of the source: active = potency below about 15 µM; inconclusive = mostly about 16 µM to 33 µM; inactive = weaker than that. Some of the results follow.
# Target: Lysosomal acid glucosylceramidase (Homo sapiens) (UniProt P04062)
# Experiment: Glucocerebrosidase;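 note: the screen sought inhibitors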
# Conditions: purified enzyme, resorufin glucoside fluorescence (screen aimed at inhibitors), 20 min
# Method in brief: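 Wild-type enzyme at 0.2 nM final in 50mM citric acid/KH2PO4, 10mM sodium taurocholate, 0.01% tween-20, pH 5.9, with resorufin beta-D-glucopyranoside at 30 uM final. Compounds titrated, 20 min at RT, red fluorescence read; AC50 from titration.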
# Potency is the fitted concentration of half-maximal effect.
# Chain of UniProt P04062 (P04062 whole entry, looked up): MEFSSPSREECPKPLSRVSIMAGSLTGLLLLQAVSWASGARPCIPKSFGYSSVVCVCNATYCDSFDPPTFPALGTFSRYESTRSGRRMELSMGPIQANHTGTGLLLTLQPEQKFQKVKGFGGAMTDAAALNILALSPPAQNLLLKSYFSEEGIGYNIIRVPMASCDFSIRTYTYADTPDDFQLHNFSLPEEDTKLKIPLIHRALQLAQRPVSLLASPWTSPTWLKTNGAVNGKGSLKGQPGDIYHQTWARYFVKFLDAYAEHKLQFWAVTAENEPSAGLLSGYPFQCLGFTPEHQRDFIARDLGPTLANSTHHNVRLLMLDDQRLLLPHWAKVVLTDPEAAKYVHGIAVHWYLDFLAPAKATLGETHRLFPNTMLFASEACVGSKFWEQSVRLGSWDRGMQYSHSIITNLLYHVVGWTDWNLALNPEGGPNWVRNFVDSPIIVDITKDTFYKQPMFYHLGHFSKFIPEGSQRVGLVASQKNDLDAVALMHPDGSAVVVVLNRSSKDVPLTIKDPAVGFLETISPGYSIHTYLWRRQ
row,SMILES,Potency
1,CCSP1(=S)N=C(N2CCOCC2)C(C#N)=C2CCCN21 (stereo unspecified),inactive: > 76.9 µM
2,NCCc1ccc(O)cc1,inactive: > 76.9 µM
3,CCCS(=O)(=O)N1CCC(C(=O)N2CCC3(CC2)OCCO3)CC1,inactive: > 76.9 µM
4,COc1ccccc1N1C(=O)NC(=O)C2(Cc3cc(C)ccc3N(C)C2)C1=O (stereo unspecified),inactive: > 76.9 µM
5,CCOc1cccc(C2NCc3ccccc3-n3cccc32)c1O (stereo unspecified),inactive: > 76.9 µM
6,CCCCn1c(O)c(C(C)=NCc2ccc(F)cc2)c(=O)[nH]c1=O,inactive: > 76.9 µM
7,CCC1CCCCN1P(=O)(c1ccc(C)o1)C(C)(C)C (stereo unspecified),inactive: > 76.9 µM
8,CCC(=NCc1ccco1)c1c(O)n(-c2ccc(OC)cc2)c(=O)[nH]c1=O,inactive: > 76.9 µM
9,O=C(Cc1ccccc1)N1CCN(CC2CC=CCC2)CC1 (stereo unspecified),inactive: > 76.9 µM
10,CN(C)c1ccc(P(=S)(N(C)C)N(C)C)cc1,inactive: > 76.9 µM
11,CCOC(=O)C1C2NC(=O)N(Cc3ccccc3)C1(C)Oc1c(OC)cccc12 (stereo unspecified),inactive: > 76.9 µM
12,Cc1cccc(N2C(=O)CC(=O)NC2=O)c1,inactive: > 76.9 µM
13,O=C(c1cc(-c2cccnc2)nc2ccc(Cl)cc12)N1CCC2(CC1)OCCO2,inactive: > 76.9 µM
14,O=c1[nH]c(=O)n(Cc2ccco2)c(O)c1C=NCc1cccs1,inactive: > 76.9 µM
15,CCOCCCNC(=O)CN1C2CCC1CC(O)(c1ccc(OC)cc1)C2 (stereo unspecified),inactive: > 76.9 µM
16,CC(C)NS(=O)(=O)c1ccc(OCC(=O)N2CCN(Cc3ccccc3)CC2)cc1,inactive: > 76.9 µM
17,CN1C(=O)C(Cc2c[nH]c3ccccc23)C(=O)N(C)C1=O,inactive: > 76.9 µM
18,CC(C(N)=O)N1CC(c2ccccc2)CC1=O (stereo unspecified),inactive: > 76.9 µM
19,CC(C)Oc1ccc(Cc2c(O)[nH]c(=O)[nH]c2=O)cc1,inactive: > 76.9 µM
20,CCOC(=O)c1c(C)c(C(=O)N2CCC3(CC2)OCCO3)c(C)n1CC,inactive: > 76.9 µM
21,CCOC(=O)C(O)(c1ccc(N)c(OC)c1)C(F)(F)F (stereo unspecified),inactive: > 76.9 µM
22,CN1CCN(C(=O)COc2ccc(-c3nc4ccccc4s3)cc2)CC1,inactive
23,CC(=O)C1=C(C)OC(N)=C(C(=O)OC(C)C)C12C(=O)Nc1ccccc12 (stereo unspecified),inactive: > 76.9 µM

row,SMILES,Potency
1,COc1ccc(N2CCN(CCCN)CC2)cc1,inactive: > 76.9 µM
2,CC(C(=O)c1c[nH]c2ccccc12)N1CCc2ccccc2C1 (stereo unspecified),inactive: > 76.9 µM
3,C[N+]12CN3CN(CN(C3)C1)C2,inactive: > 76.9 µM
4,C=CCn1c(O)c(C(C)=Nc2ccc(N(C)C)cc2)c(=O)[nH]c1=O,inactive: > 76.9 µM
5,CN(C)CCN=Cc1c(O)n(C2CCCCCC2)c(=O)[nH]c1=O,inactive: > 76.9 µM
6,CC(=NCC1CCCO1)c1c(O)n(C)c(=O)n(C)c1=O (stereo unspecified),inactive: > 76.9 µM
7,O=c1[nH]c(=O)n(Cc2ccco2)c(O)c1C=NCc1ccco1,inactive: > 76.9 µM
8,C=Cn1ccnc1P(=S)(c1ccn(C)c1)c1nccn1C=C,inactive: > 76.9 µM
9,COc1ccc(-n2c(=O)[nH]c3ccccc3c2=O)c(OC)c1,inactive: > 76.9 µM
10,OC12CCCCC1C(c1ccccc1)NCC2 (stereo unspecified),inactive: > 76.9 µM
11,COc1ccc(-c2nc(CSCC(=O)N3CCC4(CC3)OCCO4)c(C)o2)cc1OC,inactive: > 76.9 µM
12,CC(=O)c1c(O)n(C2CCCCCC2)c(=O)[nH]c1=O,inactive: > 76.9 µM
13,Cc1nc2cc(C(F)(F)F)ccc2n1C1CCN(Cc2nnnn2Cc2cccs2)CC1,inactive: > 76.9 µM
14,C=Cn1ccnc1P(=S)(c1cc(N(CC)CC)ns1)c1nccn1C=C,inactive: > 76.9 µM
15,O=C1NC(=O)C2(Cc3ccccc3N3CCCC32)C(=O)N1c1ccccc1 (stereo unspecified),inactive: > 76.9 µM
16,CCCC1=C(C(=O)OCC)C2(C(=O)Nc3ccc(C)cc32)C(C#N)=C(N)O1 (stereo unspecified),inactive: > 76.9 µM
17,O=C(Nc1cccc(OC(=O)N2CCOCC2)c1)N1CCOCC1,inactive: > 76.9 µM
18,Cc1ccc(S(=O)(=O)NC(CC(=O)N2CCC3(CC2)OCCO3)c2ccco2)cc1 (stereo unspecified),inactive: > 76.9 µM
19,CCOP(=S)(OCC)c1ccc(N(C)C)cc1,inactive: > 76.9 µM
20,CCOC(=O)C1=C(N)OC(C)=C(C(=O)OCCOC)C12C(=O)Nc1ccccc12 (stereo unspecified),inactive: > 76.9 µM
21,CC12CN3CC(C)(CN(C1)C3c1ccncc1)C2=O (stereo unspecified),inactive: > 76.9 µM
22,O=C1CC(=O)N(c2cccc(Cl)c2)C(=O)N1,inactive: > 76.9 µM
23,CN(C)CCc1nc2ccccc2c(=O)n1-c1ccccc1,inactive: > 76.9 µM

row,SMILES,Potency
1,COc1cc(CN2C(=O)NC(=O)C3(Cc4cc(C)ccc4N(C)C3)C2=O)cc(OC)c1 (stereo unspecified),inactive: > 76.9 µM
2,CC(=O)C1C2c3ccccc3OC1(C)N=c1s/c(=C/c3cnn(C)c3)c(=O)n12 (stereo unspecified),inactive: > 76.9 µM
3,CC(C)OCCCNC(=O)c1c(N)n(Cc2cccs2)c2nc3ccccc3nc12,inactive: > 76.9 µM
4,CC#CP(=O)(OCC)C(O)(c1ccccc1)C(F)(F)F (stereo unspecified),inactive: > 76.9 µM
5,CCN(CC)CCCN=Cc1c(O)n(-c2ccccc2F)c(=O)[nH]c1=O,inactive: > 76.9 µM
6,OC1(c2ccccc2F)CC2CCC(C1)N2CCN1CCOCC1 (stereo unspecified),inactive: > 76.9 µM
7,CN1CCN(c2c[nH]c(=O)[nH]c2=O)CC1,inactive: > 76.9 µM
8,O=C(c1cc2ccccc2oc1=O)N1CCC2(CC1)OCCO2,inactive: > 76.9 µM
9,COC(=O)C(C)Oc1cc(C)cc2oc(=O)c3c(c12)CCCC3 (stereo unspecified),inactive: > 76.9 µM
10,COc1ccc(CCNC(=O)c2c(N)n(CCN3CCOCC3)c3nc4ccccc4nc23)cc1,inactive
11,COC(=O)C1C2c3ccccc3OC1(C)N=c1s/c(=C/c3cn(C)nc3C)c(=O)n12 (stereo unspecified),inactive: > 76.9 µM
12,Cn1c(C(=O)N2CCC(C(=O)N3CCC4(CC3)OCCO4)CC2)cc2sccc21,inactive: > 76.9 µM
13,COc1ccc(S(=O)(=O)Cc2ccc(C(=O)N3CCC4(CC3)OCCO4)o2)cc1,inactive: > 76.9 µM
14,Cc1nc2ncnn2c(C)c1CCC(=O)N1CCC2(CC1)OCCO2,inactive: > 76.9 µM
15,CC(=NCCCN1CCOCC1)c1c(O)[nH]c(=O)[nH]c1=O,inactive: > 76.9 µM
16,CCN(CC)c1ccc(N=Cc2c(O)n(CCC3=CCCCC3)c(=O)[nH]c2=O)cc1,inactive: > 76.9 µM
17,CCOC(=O)C1SC2(C(F)(F)F)CC1(O)c1c(C)cc(C)nc1O2 (stereo unspecified),inactive: > 76.9 µM
18,CCOC(=O)C1=C(N)Oc2cc(C)oc(=O)c2C12C(=O)N1c3c(cccc32)C(C)CC1(C)C (stereo unspecified),inactive: > 76.9 µM
19,CCCCn1c(O)c(C(CC)=Nc2cccc(C(=O)O)c2)c(=O)[nH]c1=O,inactive: > 76.9 µM
20,CCCCn1c(O)c(C(C)=Nc2ccc(OCC)cc2)c(=O)[nH]c1=O,inactive: > 76.9 µM
21,CC(=O)c1c(O)n(C)c(=S)n(-c2ccccc2)c1=O,inactive: > 76.9 µM
22,O=C(CNS(=O)(=O)c1ccc(Br)s1)N1CCC2(CC1)OCCO2,inactive: > 76.9 µM
23,CCCCn1c(O)c(C(C)=Nc2ccc(C(=O)O)cc2)c(=O)[nH]c1=O,inactive: > 76.9 µM

row,SMILES,Potency
1,O=C(NC1(C(F)(F)F)Oc2ccccc2O1)N1CCC2(CC1)OCCO2,inactive: > 76.9 µM
2,OC1(CN2CCOCC2)C2CC3CC(C2)CC1C3 (stereo unspecified),inactive: > 76.9 µM
3,CSC(=Nc1ccccc1)c1c(O)n(C)c(=O)n(C)c1=O,inactive: > 76.9 µM
4,COCCOC(=O)C1=C(C)OC(N)=C(C(=O)OC)C12C(=O)Nc1ccccc12 (stereo unspecified),inactive: > 76.9 µM
5,O=C1CSC2N1CCNC21CCCCC1 (stereo unspecified),inactive: > 76.9 µM
6,CN1CCN(c2nccc3c2ncn3C)CC1,inactive: > 76.9 µM
7,Cc1ccc(Cn2nnnc2CN2CCC(n3nnc4ccccc43)CC2)cc1,inactive: > 76.9 µM
8,CCCCn1c(O)c(C(C)=NC(Cc2c[nH]c3ccccc23)C(=O)OC)c(=O)[nH]c1=O (stereo unspecified),inactive: > 76.9 µM
9,COc1ccc(C(=O)N2CCOCC2)cc1S(=O)(=O)N1CCC(C)CC1,inactive: > 76.9 µM
10,CC1(C)CC(=O)C(C2(O)C(=O)NC(=O)NC2=O)=C(O)C1,inactive: > 76.9 µM
11,CCNc1ccc(P(=S)(N(C)C)N(C)C)cc1,inactive: > 76.9 µM
12,CCOP1(=S)Oc2cc3c(cc2C(C(=O)OC)(C(F)(F)F)O1)OCO3 (stereo unspecified),inactive
13,C=CCn1c(O)c(C(CC)=NCCCO)c(=O)[nH]c1=O,inactive: > 76.9 µM
14,O[C@H]1C2CCC1C(N1CCCCC1)CC2 (stereo partly specified),inactive: > 76.9 µM
15,CCN(CC)CCOC(=O)c1cc2cc(COC)ccc2o1,inactive: > 76.9 µM
16,COc1cccc(Oc2c(C)oc3cc(OC(=O)N(C)C)ccc3c2=O)c1,inactive: > 76.9 µM
17,O=C(O)C(O)(c1ccccc1)C1CCCC1 (stereo unspecified),inactive: > 76.9 µM
18,CC(=NCCO)c1c(O)n(C2CCCCC2)c(=O)[nH]c1=O,inactive: > 76.9 µM
19,CCCCn1c(C)c(C(=O)O)c2cc(OC)ccc21,inactive: > 76.9 µM
20,Cc1ccc2cccc(OC(=O)N3CCCC3)c2n1,inactive: > 76.9 µM
21,CCOC(=O)N(C)c1ccc(C(O)(C(=O)OCC)C(F)(F)F)cc1 (stereo unspecified),inactive: > 76.9 µM
22,N[C@@H](Cc1c[nH]c2ccccc12)c1nnc(SCc2ccc(Cl)cc2)o1,inactive
